Data reported in the supplement of paper PMC3334620.
The full ranking holds about 33,000 sequences; the median of “E-score (-0.5 to 0.5)” is about -0.012, and the highest 2% start at about 0.27. The list shows a part of the results.

target: T1, Vhr1 (UniProt P40522); assay: PBM E-score (8-mer binding enrichment) (E-score (-0.5 to 0.5)); higher = stronger / more preferred TF binding; most listed sequences are background and not binding sites; conditions: protein concentration: 200 nM; construct: GST-full length
T1 sequence: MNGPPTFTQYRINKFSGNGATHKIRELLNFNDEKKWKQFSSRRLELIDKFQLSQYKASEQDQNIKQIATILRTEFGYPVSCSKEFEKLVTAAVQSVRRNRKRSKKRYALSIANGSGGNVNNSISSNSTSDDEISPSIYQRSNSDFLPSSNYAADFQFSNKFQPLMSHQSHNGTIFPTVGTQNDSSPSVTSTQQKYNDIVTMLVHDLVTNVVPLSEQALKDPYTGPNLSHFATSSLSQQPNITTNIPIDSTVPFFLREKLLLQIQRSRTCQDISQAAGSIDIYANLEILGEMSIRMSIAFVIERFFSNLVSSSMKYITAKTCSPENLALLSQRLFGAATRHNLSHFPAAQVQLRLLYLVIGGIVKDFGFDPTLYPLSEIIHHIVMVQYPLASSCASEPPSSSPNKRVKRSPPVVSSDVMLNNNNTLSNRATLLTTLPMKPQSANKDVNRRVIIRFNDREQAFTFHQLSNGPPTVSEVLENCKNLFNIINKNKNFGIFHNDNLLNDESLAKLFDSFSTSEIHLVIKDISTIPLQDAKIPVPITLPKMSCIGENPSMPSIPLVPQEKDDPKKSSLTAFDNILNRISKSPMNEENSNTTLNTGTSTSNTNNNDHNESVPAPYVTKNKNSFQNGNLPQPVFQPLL
In short: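 For each ungapped eight-base word taken together with its reverse complement, the Universal PBM Analysis Suite assigned an E-score. Binding data came from GST-tagged yeast transcription factors, applied at about 100-200 nM, on universal all-10-mer Agilent arrays made double-stranded by primer extension. Fluorescent anti-GST marked bound protein, and scans were normalised with masliner.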

Sequence	PBM E-score
ACCGGGTC	0.143
CTACGATC	-0.0877
ACATTTAC	-0.0363
CGGCGTAG	-0.0267
ACAATTGC	-0.118
CAGATGCG	-0.132
TTCGGCAA	-0.0215
GTTTCATA	0.0705
CGCAACGA	0.093
ATTTCAGA	-0.0987
AACTTCGG	-0.0629
CGTTCCAA	-0.0737
TAAGAAAA	-0.28
GTTGAACA	-0.269
GGTCCCCA	-0.136
AGCCCTCA	-0.172
GCCCGTAC	-0.118
CCACAAAC	0.00235
CTCAAAAA	-0.0881
AAACTAGG	-0.0415
AGATGCTG	-0.0294
GCGTGCCC	0.0244
GAAAGGTA	-0.212
CTATCAAA	-0.0333
CTCCGGGC	0.0352

Sequence	PBM E-score
CCCCGAGC	0.0825
TCAAGCCA	-0.00986
GCAGCTGC	-0.232
TCGGCGCA	0.11
AAAAACCC	-0.173
CTAGTGTA	0.114
GATGCTCC	-0.126
CCTACGAG	0.142
CCTAGAGA	-0.202
GGGCGCCA	0.115
CCACCCTA	0.0578
CCATTTCG	-0.134
GACTCGGA	0.278
CTGTCCAA	-0.122
GGTCTGAC	0.226
CTTACTTC	-0.125
CGAAAGTA	-0.149
CACCTGGA	-0.0626
TCTTGTAA	0.0547
CTCGGTTA	-0.0784
ACGGAAGG	-0.1
CCGATTAG	0.0891
AACATAAC	0.078
ATCCTGGG	-0.0716
CCATTTAG	-0.0927

Sequence	PBM E-score
ACCGCGCC	-0.0598
AGTGAACC	0.082
CACGAAAG	-0.0996
GTCTTAAA	-0.217
CATACGTC	-0.0442
GACTGTCA	0.0521
CAAGGGAA	-0.169
CTTTAATC	-0.138
CAGAAGTC	-0.0504
TATAGCAA	0.00432
AACCTTGA	-0.0303
CGCCGGAA	-0.0762
ACCGGCCT	-0.0394
CTGTCCCC	-0.0993
GACACCAA	0.108
GGCGTCCC	-0.191
ATAATCTA	-0.0617
CGCCCTAA	-0.247
CAGCCAGC	0.0302
ATAAGACC	-0.184
CAGAGCAA	-0.0116
CCGGAACC	0.195
CTGGTGCA	0.0228
GATTATAC	0.213
AAGCCAGG	-0.0848

Sequence	PBM E-score
ATCCCCGC	0.129
CTACTCGC	0.03
CCGACCAG	0.0371
TGCTGCAA	0.0653
ATAGGTGA	0.0863
AAATCTAT	-0.139
GCCCATAC	0.138
TCCCCCAA	-0.3
TGGCGGAA	-0.188
ACCGGAAA	-0.212
GGATTTAA	-0.111
CTGTGATC	-0.00833
ACAAGCAA	0.00548
AAGGACGG	-0.125
CCGTTCCG	-0.0154
CGATGTAC	0.111
CTAAGCGC	-0.212
CAGCCTGC	-0.0482
CAGATTAA	0.067
GTCTGAAA	-0.0548
AACCGTAA	-0.21
ACCCCAGA	-0.0498
AGCTGCCG	-0.00013
GTCTACAA	-0.0911
AGACCCAG	0.0353

Sequence	PBM E-score
ACCCGCCA	0.115
CTCGGACC	0.0226
GAATAATC	0.115
CCCACGGA	-0.164
AGATTAAT	0.0836
AAGGGTGT	-0.0257
ATGGTACG	0.0914
GGTCTCAC	-0.0703
AATACGGA	-0.0132
GGCGCCTA	-0.145
CTTTGTTC	0.00428
AACGAGAG	0.0134
TAGAGCTA	-0.166
CATGATAG	0.148
CAAAGCGA	0.00287
CCTTGCTC	-0.0656
CGAACTTC	-0.274
AATTCGTG	-0.026
ATGCACAC	0.0667
ATAAAATC	0.0544
ACGAGGTG	-0.00893
AGTCACTA	0.366
CCCCCATA	-0.274
GCCCGTTA	-0.324
CAAGATGC	0.0821

Sequence	PBM E-score
ATATGCTG	0.0731
GCAATACA	0.242
CAAGTATC	0.016
ACATCGCA	0.0595
CATCAGGC	0.0611
GCTTCGTA	-0.112
ATAGGTTG	-0.0251
ACCACGCT	0.0488
GAGAGTAA	0.0595
ACAATGTA	0.0623
TCACATAA	0.0625
GCCCGAGC	0.113
ATCGTTAC	0.0466
GCCCCTAA	-0.114
AGCACGTA	0.093
CAGTGTGG	-0.0544
CAAACTGC	-0.00074
ACGCGTAC	-0.00383
GATACGCC	0.127
CGCATTAG	-0.0348
CTTACGAC	-0.222
AAAGTCAG	0.119
AAAACAAG	-0.0719
CGTGCGAG	0.154
ACGGGCGC	0.0622

Sequence	PBM E-score
AAGCGTAT	-0.168
AATTAACT	-0.0839
AAGCGCTA	-0.0706
CAGCCTAC	0.0688
CCTCGCCG	-0.118
CGCGGGCA	0.287
CTCTACGC	-0.15
CGGGCCAG	0.0138
CTTGGGGC	0.0928
CGTAAGCA	-0.222
CAGTCCAG	-0.172
AGATAAAC	-0.0729
ACTGGACC	-0.0493
GAATGTGC	-0.117
ATCATGAA	0.118
CAGCGCAA	0.0144
AAGACATG	-0.0734
GGCCCAAA	-0.186
GACCCCAA	-0.0381
AGATGTTG	-0.0539
ATGAGGGA	0.027
AGTTTAAA	-0.132
